# Some of the results follow.
# B1: PX9961C-bth-497-22-497 (Bacteroides thetaiotaomicron) (protein)
# chain: DWLDLNTTSSVETGQAIVTLDDAQIALNGIYRLASGHSYYGDNYWYYGDCRAADVQARITKGDGKRVSPYYEYNVLASDNLNIVLPWNTVYKVIRQTNNLIQKIESGSIQSSDTKELNRIKSEALVMRGLSLFNLTRLFGMPYTNDKGASLGVPIETSPSDPTHKPSRSTVAQCYEQVVSDMSNALSGLRQETSNGYINYWAAQALLSRVYLNMGEYQKAYDAATDVIKNNGGRYQLYSYEEYPNVWGQDFQSESLFELYITLSEPSGGTGGEGAPMVYANEATVDWNNLILSEDFLNLLNEDPKDVRHCLTKESVIENNTGLPAAAMHEKVYLAKFPGKTGDDPKTNNICIIRLSEVYLNAAEAGLKKGTDIEEAQGYLNDIISRRTTDTSQQVSTETFTLDRILKERRKELVGEGEVFYDYLRNGLAIERKGSWHLETLKASNAQKIEATDLRIALPIPQSEIDANPNIQQNPR
# Tests used:
# Test in all cases: glycan array binding signal (z-score within array); higher = stronger binding
# Settings in all cases: glycan notation: IUPAC condensed, linker removed
# GlcNAc(b1-3)Man = target: GlcNAc(b1-3)Man
# Procedure, shortened: (§1)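 The binding signal is a Z-score computed within each array. Data were drawn from 3228 arrays in the Consortium for Functional Glycomics database, restricted to those with a known protein sequence. Scores were averaged over arrays of the same protein sequence at different concentrations or buffers, and over linkers, and negative values can be taken as non-binding.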
# [1] = target: GlcNAc(b1-3)[GlcNAc(b1-4)][GlcNAc(b1-6)]GlcNAc
# Procedure, shortened: as §1
# [2] = target: GlcNAc(b1-3)[GlcNAc(b1-6)]Gal(b1-4)GlcNAc
# Procedure, shortened: as §1
# [3] = target: GlcNAc(b1-3)[GlcNAc(b1-6)]GalNAc
# Procedure, shortened: as §1
# [4] = target: GlcNAc(b1-4)Gal(b1-4)GlcNAc
# Procedure, shortened: as §1
# GlcNAc(b1-4)GlcNAc = target: GlcNAc(b1-4)GlcNAc
# Procedure, shortened: as §1
# [5] = target: GlcNAc(b1-4)GlcNAc(b1-4)GlcNAc
# Procedure, shortened: as §1
# [6] = target: GlcNAc(b1-4)GlcNAc(b1-4)GlcNAc(b1-4)GlcNAc(b1-4)GlcNAc
# Procedure, shortened: as §1
# [7] = target: GlcNAc(b1-4)GlcNAc(b1-4)GlcNAc(b1-4)GlcNAc(b1-4)GlcNAc(b1-4)GlcNAc
# Procedure, shortened: as §1
# [8] = target: GlcNAc(b1-4)[GlcNAc(b1-6)]GalNAc
# Procedure, shortened: as §1
# [9] = target: GlcNAc(b1-6)Gal(b1-4)GlcNAc
# Procedure, shortened: as §1
# GlcNAc(b1-6)GalNAc = target: GlcNAc(b1-6)GalNAc
# Procedure, shortened: as §1
# [10] = target: GlcNAc6S(b1-3)Gal(b1-4)GlcNAc
# Procedure, shortened: as §1
# Kdn(a2-3)Gal(b1-3)GalNAc = target: Kdn(a2-3)Gal(b1-3)GalNAc
# Procedure, shortened: as §1
# Kdn(a2-3)Gal(b1-3)GlcNAc = target: Kdn(a2-3)Gal(b1-3)GlcNAc
# Procedure, shortened: as §1
# Kdn(a2-3)Gal(b1-4)Glc = target: Kdn(a2-3)Gal(b1-4)Glc
# Procedure, shortened: as §1
# Kdn(a2-3)Gal(b1-4)GlcNAc = target: Kdn(a2-3)Gal(b1-4)GlcNAc
# Procedure, shortened: as §1
# [11] = target: Kdn(a2-3)Gal(b1-4)[Fuc(a1-3)]GlcNAc
# Procedure, shortened: as §1
# Kdn(a2-6)Gal(b1-4)GlcNAc = target: Kdn(a2-6)Gal(b1-4)GlcNAc
# Procedure, shortened: as §1
# [12] = target: Man(a1-2)Man(a1-2)Man(a1-3)Man
# Procedure, shortened: as §1
# [13] = target: Man(a1-2)Man(a1-2)Man(a1-6)[Man(a1-3)]Man
# Procedure, shortened: as §1
# Man(a1-2)Man(a1-3)Man = target: Man(a1-2)Man(a1-3)Man
# Procedure, shortened: as §1
# [14] = target: Man(a1-2)Man(a1-3)[Man(a1-2)Man(a1-6)]Man
# Procedure, shortened: as §1
# [15] = target: Man(a1-2)Man(a1-3)[Man(a1-2)Man(a1-6)]Man(a1-6)[Man(a1-2)Man(a1-2)Man(a1-3)]Man
# Procedure, shortened: as §1
# [16] = target: Man(a1-2)Man(a1-3)[Man(a1-2)Man(a1-6)]Man(a1-6)[Man(a1-2)Man(a1-2)Man(a1-3)]Man(b1-4)GlcNAc(b1-4)GlcNAc
# Procedure, shortened: as §1
# [17] = target: Man(a1-2)Man(a1-3)[Man(a1-6)]Man(a1-6)[Man(a1-2)Man(a1-3)]Man(b1-4)GlcNAc(b1-4)GlcNAc
# Procedure, shortened: as §1
# [18] = target: Man(a1-2)Man(a1-6)[Man(a1-3)]Man(a1-6)[Man(a1-2)Man(a1-2)Man(a1-3)]Man
# Procedure, shortened: as §1
# [19] = target: Man(a1-2)Man(a1-6)[Man(a1-3)]Man(a1-6)[Man(a1-2)Man(a1-2)Man(a1-3)]Man(b1-4)GlcNAc(b1-4)GlcNAc
# Procedure, shortened: as §1
# Man(a1-3)[Man(a1-6)]Man = target: Man(a1-3)[Man(a1-6)]Man
# Procedure, shortened: as §1
# [20] = target: Man(a1-3)[Man(a1-6)]Man(a1-6)[Man(a1-2)Man(a1-3)]Man(b1-4)GlcNAc(b1-4)GlcNAc
# Procedure, shortened: as §1
# [21] = target: Man(a1-3)[Man(a1-6)]Man(a1-6)[Man(a1-3)]Man
# Procedure, shortened: as §1
# [22] = target: Man(a1-3)[Man(a1-6)]Man(a1-6)[Man(a1-3)]Man(b1-4)GlcNAc(b1-4)GlcNAc
# Procedure, shortened: as §1
# [23] = target: Man(a1-3)[Man(a1-6)]Man(b1-4)GlcNAc(b1-4)GlcNAc
# Procedure, shortened: as §1
# [24] = target: Man(a1-3)[Man(a1-6)]Man(b1-4)GlcNAc(b1-4)[Fuc(a1-6)]GlcNAc
# Procedure, shortened: as §1
# Man(a1-6)Man = target: Man(a1-6)Man
# Procedure, shortened: as §1
# Man(b1-4)GlcNAc = target: Man(b1-4)GlcNAc
# Procedure, shortened: as §1
# MurNAc(b1-4)GlcNAc = target: MurNAc(b1-4)GlcNAc
# Procedure, shortened: as §1
# Neu5Ac(a2-3)Gal = target: Neu5Ac(a2-3)Gal
# Procedure, shortened: as §1
binder,measurement,setting,value
B1,glycan array binding signal (z-score),GlcNAc(b1-3)Man,-0.613
same,glycan array binding signal (z-score),[1],-0.445
same,glycan array binding signal (z-score),[2],0.384
same,glycan array binding signal (z-score),[3],-0.214
same,glycan array binding signal (z-score),[4],-0.123
same,glycan array binding signal (z-score),GlcNAc(b1-4)GlcNAc,-0.2
same,glycan array binding signal (z-score),[5],-0.285
same,glycan array binding signal (z-score),[6],-0.492
same,glycan array binding signal (z-score),[7],-0.255
same,glycan array binding signal (z-score),[8],-0.651
same,glycan array binding signal (z-score),[9],0.315
same,glycan array binding signal (z-score),GlcNAc(b1-6)GalNAc,-0.304
same,glycan array binding signal (z-score),[10],-0.218
same,glycan array binding signal (z-score),Kdn(a2-3)Gal(b1-3)GalNAc,0.499
same,glycan array binding signal (z-score),Kdn(a2-3)Gal(b1-3)GlcNAc,-0.812
same,glycan array binding signal (z-score),Kdn(a2-3)Gal(b1-4)Glc,0.416
same,glycan array binding signal (z-score),Kdn(a2-3)Gal(b1-4)GlcNAc,-0.456
same,glycan array binding signal (z-score),[11],-0.455
same,glycan array binding signal (z-score),Kdn(a2-6)Gal(b1-4)GlcNAc,-0.057
same,glycan array binding signal (z-score),[12],-0.329
same,glycan array binding signal (z-score),[13],-0.23
same,glycan array binding signal (z-score),Man(a1-2)Man(a1-3)Man,0.277
same,glycan array binding signal (z-score),[14],0.069
same,glycan array binding signal (z-score),[15],0.29
same,glycan array binding signal (z-score),[16],-0.823
same,glycan array binding signal (z-score),[17],-0.492
same,glycan array binding signal (z-score),[18],0.025
same,glycan array binding signal (z-score),[19],0.071
same,glycan array binding signal (z-score),Man(a1-3)[Man(a1-6)]Man,-0.06
same,glycan array binding signal (z-score),[20],-0.505
same,glycan array binding signal (z-score),[21],0.438
same,glycan array binding signal (z-score),[22],0.217
same,glycan array binding signal (z-score),[23],0.467
same,glycan array binding signal (z-score),[24],-0.057
same,glycan array binding signal (z-score),Man(a1-6)Man,-0.481
same,glycan array binding signal (z-score),Man(b1-4)GlcNAc,-0.206
same,glycan array binding signal (z-score),MurNAc(b1-4)GlcNAc,0.039
same,glycan array binding signal (z-score),Neu5Ac(a2-3)Gal,-0.499

# Source: the supplement of paper PMC8728848
